In all, about 33,000 sequences were measured (“E-score (-0.5 to 0.5)”: median about -0.035, highest 2% from about 0.34 on). The list shows a part of the results.
target: T1, Mot3 (UniProt P54785); experiment: PBM E-score (8-mer binding enrichment) (E-score (-0.5 to 0.5)); higher = stronger / more preferred TF binding; most listed sequences are background and not binding sites; settings: protein concentration: 200 nM; construct: GST-full length
T1 sequence: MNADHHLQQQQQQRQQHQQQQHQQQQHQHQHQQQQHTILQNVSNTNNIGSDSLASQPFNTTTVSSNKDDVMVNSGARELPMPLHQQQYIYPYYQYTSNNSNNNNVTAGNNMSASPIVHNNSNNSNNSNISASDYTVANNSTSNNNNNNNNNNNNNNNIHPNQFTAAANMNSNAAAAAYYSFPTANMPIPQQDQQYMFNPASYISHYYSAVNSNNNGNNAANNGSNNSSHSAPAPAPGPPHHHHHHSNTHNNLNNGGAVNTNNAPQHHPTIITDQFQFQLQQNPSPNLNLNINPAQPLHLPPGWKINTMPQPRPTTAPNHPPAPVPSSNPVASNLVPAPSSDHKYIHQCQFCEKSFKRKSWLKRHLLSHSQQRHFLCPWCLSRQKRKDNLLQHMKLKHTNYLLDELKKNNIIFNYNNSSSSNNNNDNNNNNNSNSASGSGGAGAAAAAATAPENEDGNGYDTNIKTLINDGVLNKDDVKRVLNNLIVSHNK
Procedure, shortened: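 E-scores (a modified Wilcoxon-Mann-Whitney statistic) were assigned by the Universal PBM Analysis Suite to every ungapped eight-base word pooled with its reverse complement. The input came from universal all-10-mer Agilent arrays made double-stranded by primer extension and probed with GST-tagged yeast transcription factors at about 100-200 nM. Fluorescent anti-GST detected bound protein, and masliner normalised the scans.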

| Sequence | PBM E-score |
| --- | --- |
| ATCGGACC | -0.261 |
| GACGCCAC | -0.222 |
| ATGCCGGC | -0.108 |
| ACGCTAAC | 0.0757 |
| GCGACCGC | -0.25 |
| CTAGATGA | -0.0866 |
| AGAGGTGC | -0.142 |
| GTAATAAC | 0.294 |
| GAGGTTTA | -0.0892 |
| GTGCTGGA | -0.196 |
| CCTGTGGA | 0.0704 |
| GCAAGATA | -0.00371 |
| ATGGTGGA | -0.265 |
| AACTGTCT | 0.00608 |
| CCGTTTAG | -0.0137 |
| AGGGTCGA | -0.133 |
| AGCAGTGA | -0.155 |
| CCTCAAAG | -0.0515 |
| ATATGCAG | -0.0866 |
| GCTGGTCA | -0.166 |
| CAATTTGC | -0.00949 |
| GCCCTTCC | -0.266 |
| ATTTAGAG | 0.0596 |
| AAGCGTTA | -0.124 |
| AGTGAGTC | -0.11 |

| Sequence | PBM E-score |
| --- | --- |
| ACCTCAGT | -0.176 |
| CGAGAAAC | -0.167 |
| AACCGCTT | -0.00052 |
| ATTCGCTG | -0.166 |
| ATCGGGAG | -0.19 |
| GACCGCGC | -0.205 |
| AAGCGGAC | -0.199 |
| ACAATGAG | -0.0555 |
| CCACGCTC | -0.186 |
| ACGGTGAC | -0.0848 |
| ATCGACAC | 0.195 |
| CTTCACAA | 0.0967 |
| CACGGTGG | -0.0381 |
| ACCGGGGC | -0.341 |
| GCGAAGTA | 0.0402 |
| CCCCGGAA | -0.143 |
| CAACCTGG | -0.0919 |
| ACATAAAA | 0.212 |
| AAATCAGA | -0.0937 |
| CTGCCGAC | -0.214 |
| GATAGTAC | 0.0135 |
| AACAGTGG | -0.0626 |
| ATCTTTCG | -0.158 |
| CCTACCCC | -0.214 |
| CCGTCATA | -0.0245 |

| Sequence | PBM E-score |
| --- | --- |
| CAATTAGC | -0.104 |
| ACACTTTA | 0.23 |
| CTGATAAG | 0.0287 |
| TACCATGA | -0.277 |
| AGGGCCCG | -0.299 |
| ACCAATCA | -0.00666 |
| GTCTTTCA | -0.0122 |
| ACGTTTGC | 0.0468 |
| ACAGACAT | 0.109 |
| CCCCCACA | -0.228 |
| CCACGCCC | -0.268 |
| ACTTGTCT | 0.0723 |
| AGACGGGA | -0.146 |
| ATTCTCCA | -0.174 |
| ACTAACTC | -0.0537 |
| ACGTCGAT | 0.129 |
| CTGGGTCA | -0.176 |
| TATAGATA | -0.0617 |
| ATGGACTC | -0.262 |
| ATTCAACG | 0.117 |
| ATTGTAAA | 0.3 |
| ACCTATAC | 0.249 |
| CGTGCCAA | -0.0767 |
| TCACGCAA | 0.181 |
| CGTCACTC | -0.219 |

| Sequence | PBM E-score |
| --- | --- |
| AGGGGCTA | -0.0392 |
| AAATAAAT | 0.0867 |
| CATGTGCG | 0.0734 |
| GAGCTGTA | -0.0618 |
| CCCTGTTA | 0.12 |
| GGCGGCAC | -0.201 |
| AGTGGTGG | -0.235 |
| GGGAGTTA | -0.166 |
| CGGACCAA | -0.13 |
| CGGGTCTC | -0.0431 |
| AACCAGAT | -0.0683 |
| ACCGTAAC | -0.035 |
| AGACTAAC | 0.0197 |
| GTTTCTGA | 0.112 |
| TGCTCGAA | 0.0241 |
| CCCTAAAC | -0.142 |
| ATAGAATG | -0.0895 |
| CGCGAGCA | -0.187 |
| CCCTCATA | -0.134 |
| GGCCTGCA | -0.0526 |
| ATACTTAG | -0.105 |
| AGTTTTCG | 0.0727 |
| GGGGCAAC | -0.0256 |
| AAGCCCCC | -0.354 |
| GCATGGGC | -0.26 |

| Sequence | PBM E-score |
| --- | --- |
| TACCACCA | -0.215 |
| ATTTCTGA | 0.0425 |
| CTAAACGC | 0.0702 |
| ACCGTTTA | -0.0229 |
| AAGTTAAG | 0.0804 |
| ATTAGTGG | 0.0392 |
| CTCTATAC | 0.0402 |
| AGCGCTAA | -0.108 |
| TCTAGAAA | -0.0747 |
| TAATACGA | 0.156 |
| AGACCTAA | -0.161 |
| CAATCCCC | 0.0148 |
| AGGGGGCG | -0.136 |
| CAACTGTG | 0.16 |
| AGTCTACA | 0.16 |
| CATGCCGA | 0.0179 |
| AGTTCAAC | 0.105 |
| ATACTCAA | -0.00206 |
| CATACGAC | 0.0019 |
| CTCCAACA | 0.139 |
| CATTAGGC | 0.178 |
| AGCGTGAG | -0.164 |
| ATGCAGTG | 0.0731 |
| AATTCGCT | 0.043 |
| ACGACCTA | 0.0207 |

| Sequence | PBM E-score |
| --- | --- |
| AGGGCTTA | -0.107 |
| ACCTTCCA | 0.144 |
| GATATGAC | 0.0279 |
| GGACTCCC | -0.264 |
| AAATACAG | 0.212 |
| TAACAAGA | 0.309 |
| AATAACCC | -0.0722 |
| CGGACTCA | -0.172 |
| AATGTGGT | 0.0468 |
| AATCATGG | -0.0485 |
| TGAGGGAA | -0.122 |
| ATTTAAGG | 0.00043 |
| CTACGCTA | 0.00073 |
| AACGTCTC | 0.115 |
| AATAGTCA | -0.0175 |
| AGCAGGCC | -0.0206 |
| GCTCCAAA | -0.137 |
| ATCCTATG | -0.198 |
| AACGAGCA | 0.137 |
| ATTAATAA | 0.072 |
| ATCTCCGG | -0.256 |
| CGTCATCA | -0.0819 |
| CCCTACAC | 0.187 |
| AATGAGGT | -0.0627 |
| TACACGTA | 0.362 |

| Sequence | PBM E-score |
| --- | --- |
| CTAGTCTC | -0.0298 |
| CAACGCAC | 0.102 |
| ATAATAGC | 0.0909 |
| ATTTCTGG | -0.00973 |
| ATCTCGAA | 0.0527 |
| GGAGGATA | -0.00959 |
| CTGTGAGC | 0.119 |
| TCGACTAA | -0.0673 |
| CCGTGTCA | 0.277 |
| CTGCTACA | 0.121 |
| CGCGGAGA | -0.0988 |
| ATTCCTGA | 0.136 |
| AAATGACA | 0.0822 |
| TCGAGACA | -0.173 |
| CCGGGGCC | -0.357 |
| CCCCCCCC | -0.42 |
| CAAACTTC | 0.0359 |
| AGGTACTA | 0.301 |
| CCCTGGGC | -0.368 |
| CCTGTTCA | 0.0813 |
| AAATTTTC | -0.0703 |
| ACTTGTGG | 0.00314 |

Reference: the supplement of paper PMC3334620
